# Out of some 340,000 compounds screened, about 12,000 (3.5%) were called active. The shares of active, inactive and inconclusive entries below differ from those in the screen. Calls come from the whole dose curve; as a rule, active = well fitted inhibition curve with a large enough effect; inconclusive = small, poorly fitted or top-dose-only effect, or another doubt; inactive = no such curve, though single readings can be large or run the other way. No potency is given beside an inconclusive call; the fits are too rough.
# Experiment: qHTS Assay for Inhibitors of Hepatitis C Virus (HCV)
# Conditions: Huh7.5.1 HCVcc-Cre (HCVcc is cell-culture hepatitis C virus) infection, luciferase reporter, 44 h; activity change, negative = inhibition: at 41.8 µM (top of the series)
# How it was run: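 Luciferase read-out (15 sec integration) after a 15 min room-temperature substrate step quantifies HCVcc-Cre infection. Cells, 1,000 per well, had compound added 4 h post-plating, then virus at ~0.5 moi, and were cultured 44 h.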
# % is set by controls: 0 for no effect and ±100 for the full control effect; potency is the fitted concentration of half-maximal effect; tags give direction and shape of the fitted curve.
Compound,Potency,"activity change, negative = inhibition"
CC(C)(C)c1csc(NC(=O)c2ccncc2)n1,"inconclusive [inhibitor, single point]",
N#Cc1cc2sc3nc4ccccc4n3c2cc1C#N,inactive,
COc1cc(N)c(Cl)cc1C(=O)N[C@H]1CCN(CCCOc2ccc(F)cc2)C[C@H]1OC,active: 1.78 µM,
Oc1ccc(C=Nc2cccc3ccccc23)c(O)c1,inactive,
NC(=O)CC(NC(=O)Cc1cccc2ccccc12)c1ccc(NC2CCCCCC2)c([N+](=O)[O-])c1 (configuration not stated),"inconclusive [inhibitor, partial curve]",
O=C(CCCCCn1c(=S)[nH]c2ccc(N3CCOCC3)cc2c1=O)NCc1cccc(Cl)c1,"inconclusive [inhibitor, partial curve]",
Cc1n[nH]c(=O)c2c(NC(=O)COC(=O)/C=C/c3cccc(C(F)(F)F)c3)oc(C)c12,inactive,
COc1ccc(N2CCN(C(=O)COC(=O)COc3cc(C)cc(C)c3)CC2)cc1,inactive,
COc1ccc(S(=O)(=O)N(C)CC(=O)Nc2ccccc2C(F)(F)F)cc1OC,"inconclusive [inhibitor, single point]",
COc1ccc(Cn2c(=N)c(C(=O)NC3CCCCC3)cc3c(=O)n4ccccc4nc32)cc1,"inconclusive [inhibitor, partial curve]",
Cn1c(-c2ccc(Cl)cc2)cnc1N,"inconclusive [inhibitor, partial curve]",
CCCn1nnnc1NCc1ccccc1OCC,"inconclusive [inhibitor, single point]",
COc1ccc(C(=O)NC(NC(=O)c2ccc(OC)cc2)c2ccccc2F)cc1,inactive,
C=CCSc1nc2c(c(-c3ccsc3)c1C#N)CN(C)CC2,"inconclusive [inhibitor, single point]",
CCCCn1nnc(NC(=O)c2ccco2)n1,inactive,
CN(CC(=O)Nc1ccccc1Br)C(=O)c1ccc(COc2ccccc2)cc1,"inconclusive [inhibitor, single point]",
CN(C)S(=O)(=O)c1cc(NC(=O)COC(=O)CC2Sc3ccccc3NC2=O)ccc1Cl (configuration not stated),inactive,
CN(C)S(=O)(=O)c1ccc(C(=O)Nc2nc(-c3cccs3)cs2)cc1,active: 10 µM,
O=C(Cn1nc(-c2ccco2)ccc1=O)Nc1ccc(Cl)c(Cl)c1,"inconclusive [inhibitor, partial curve]",
CCc1cccc(NC2c3ccccc3C(=O)N2c2ccc(C)cn2)c1 (configuration not stated),"inconclusive [inhibitor, single point]",
NC(=O)c1ccsc1NC(=O)CN1CCN(S(=O)(=O)c2ccccc2C(F)(F)F)CC1,"inconclusive [inhibitor, partial curve]",
CCOc1ccc(CCNC(=O)c2ccc3c(=O)n4c(nc3c2)CCCCC4)cc1,"inconclusive [inhibitor, partial curve]",
Cc1ccc(-n2c(N)c(C(=O)Nc3c(C)n(C)n(-c4ccccc4)c3=O)c3nc4ccccc4nc32)cc1,active: 11.2 µM,

Compound,Potency,"activity change, negative = inhibition"
Cc1ccc(-n2c(C)cc(/C=N/NC(N)=S)c2C)cc1,"inconclusive [inhibitor, single point]",
C[C@@H]1CC=C[C@H]2[C@H]1C(=O)N(Cc1ccccc1)[C@H]2c1ccc(Br)cc1F,"inconclusive [inhibitor, single point]",
COc1ccc(C(CNC(=O)/C=C/c2c(Cl)nc3ccccn23)N(C)C)cc1 (configuration not stated),"inconclusive [inhibitor, partial curve]",
C=CCN1C(=O)/C(=C/c2ccc(O)c(OC)c2)S/C1=N/c1nccs1,"inconclusive [inhibitor, single point]",
CN(C)C(CNC(=O)c1cccc(S(=O)(=O)N2CCN(c3ccc(F)cc3)CC2)c1)c1ccccc1 (configuration not stated),"inconclusive [inhibitor, full curve, poor fit]",
CC(C)CCN1C(=O)c2cccc3c(N)ccc(c23)C1=O,"inconclusive [inhibitor, single point]",
CN(CC(=O)Nc1ccccc1Br)C(=O)CCc1nc2ccccc2c(=O)[nH]1,inactive,
OC(CCCN1CCCCC1)(c1ccccc1)c1ccc(C(F)(F)F)cc1 (configuration not stated),active: 11.2 µM,
COc1ccccc1NS(=O)(=O)c1cc(NC(=O)COc2ccccc2F)ccc1N1CCOCC1,"inconclusive [inhibitor, partial curve]",
COc1cccc(CC2(CO)CCCN(Cc3cc(F)ccc3-n3cccn3)C2)c1 (configuration not stated),"inconclusive [inhibitor, single point]",
CCC(C)(C(=O)NC1CCCCC1)N(C(=O)Cc1cccs1)c1ccccc1 (configuration not stated),inactive,
Cc1cc(NC(=O)C(C)SCC(=O)OC(C)C(=O)Nc2cccc(C#N)c2)no1 (configuration not stated),"inconclusive [inhibitor, single point]",
COc1cccc(-c2cc(C(F)(F)F)nc(N3CCN(c4ccccc4)CC3)n2)c1,"inconclusive [inhibitor, full curve]",
Cc1cc(/C=N/NC(=O)c2ccncc2)c(C)n1-c1cccc(C(F)(F)F)c1,"inconclusive [inhibitor, partial curve]",
COc1ccc(C)cc1N(C(=O)c1snc(C(N)=O)c1N)C(C(=O)NC1CCCCC1)c1ccc(C)o1 (configuration not stated),"inconclusive [inhibitor, single point]",
O=C(Cn1c(NCCO)nc2ccccc21)NCCc1ccccc1,"inconclusive [inhibitor, single point]",
Cc1cc(C(=O)Nc2ccc(Cl)cc2)c2ccccc2n1,inactive,
O=C(Nc1nc2c(s1)CN(Cc1ccccc1)CC2)C1CCC1,"inconclusive [inhibitor, single point]",
COc1cccc(NC(=O)N2CCC(NC(=O)C(Cc3ccccc3F)NC(C)=O)CC2)c1 (configuration not stated),inactive,
COc1ccc(NC(=O)CNS(=O)(=O)c2ccccc2)cc1Cl,inactive,
COc1ccc(-n2cnnc2SCC(=O)Nc2cccc(S(=O)(=O)N3CCCCC3)c2)cc1,"inconclusive [inhibitor, single point]",
COc1ccc(NS(=O)(=O)c2cc(NC(=O)c3ccc(S(=O)(=O)N(C)C)cc3)ccc2N2CCOCC2)cc1,"inconclusive [inhibitor, partial curve]",
N#CCCOC1(C#CCN2CCCC2)CCCCC1,"inconclusive [inhibitor, single point]",

Compound,Potency,"activity change, negative = inhibition"
Cc1[nH]n(-c2ccccc2)c(=S)c1C=Nc1cccc([N+](=O)[O-])c1,inactive,
CC(C)OC(=O)c1cn(-c2ccccc2)nc1-c1ccco1,"inconclusive [inhibitor, single point]",
CCC(=O)C1CCCN(C(=O)c2ccc3nc(-c4cccc(OC)c4)oc3c2)C1 (configuration not stated),"inconclusive [inhibitor, single point]",
Cn1c2ccccc2c(=O)c2cc(NCCCN3CCOCC3)ccc21,"inconclusive [inhibitor, partial curve]",
Cc1ccc(NC(=O)CN(C)C(=O)c2ccccc2Cc2ccccc2)cc1,"inconclusive [inhibitor, single point]",
COc1ccc(C(CNC(=O)Cc2ccccc2Cl)N2CCCCC2)cc1 (configuration not stated),inactive,
CCS(=O)(=O)N1CCC(c2nc(-c3ccc(C(F)(F)F)cc3)no2)CC1,"inconclusive [inhibitor, single point]",
COc1ccc(-c2noc(CCCC(=O)N3CCN(c4cc(C)ccc4C)CC3)n2)cc1,"inconclusive [inhibitor, partial curve]",
COc1cccc(-n2cc(-c3ccc(F)cc3)[nH]c2=S)c1,"inconclusive [inhibitor, partial curve]",
O=C(Nc1ccc(S(=O)(=O)N2CCOCC2)cc1)c1ccc(Cl)c([N+](=O)[O-])c1,"inconclusive [inhibitor, single point]",
COc1ccccc1OC(=O)c1ccc(SC)cc1OC,"inconclusive [inhibitor, single point]",
CC1CCN(S(=O)(=O)c2ccc3c(c2)C(=NO)c2cc(S(=O)(=O)N4CCC(C)CC4)ccc2-3)CC1,active: 2 µM,
O=C(Nc1ccc(N2CCN(C(=O)c3cccs3)CC2)c(Cl)c1)c1cccnc1,"inconclusive [inhibitor, single point]",
O=C(Cc1c[nH]c2ccccc12)NNCc1ccc(N(CCCl)CCCl)cc1,"inconclusive [inhibitor, partial curve]",
CC1(C)Cc2c(c(N3CCOCC3)nc3sc4c(NCCN5CCOCC5)nnnc4c23)CS1,active: 11.2 µM,
CC(=O)N1CCN(S(=O)(=O)c2cccc(C(=O)Nc3nc4c(s3)CCCC4)c2)CC1,"inconclusive [inhibitor, partial curve]",
Cc1cc(N2CCN(C)CC2)nc(-c2ccccc2O)n1,,inconclusive: -39.5% [inhibitor]
CC(=O)N1CCC(CCCC2CCN(C(C)=O)CC2)CC1,inactive,
Cn1c(N=NC(=O)c2ccccc2)c(O)c2ccccc21,inactive,
O=C(Nc1cccnc1)c1ccc(Br)c(S(=O)(=O)N2CCCC2)c1,"inconclusive [inhibitor, single point]",
CCN(CC)S(=O)(=O)c1ccc2c(c1)nc(CCC(=O)Nc1cccc(C(F)(F)F)c1)n2CC,"inconclusive [inhibitor, full curve]",

# Reference: PubChem BioAssay AID651820 (National Center for Advancing Translational Sciences (NCATS), 2012)
